16 molecules from PubChem BioAssay (NCATS) can be followed below.

Some of the results follow. The main result of the screen is listed elsewhere. These columns were measured beside it and carry no call. The list favours compounds with an active or inconclusive main result. Words in brackets tell the shape of the fitted curve; partial curves, single points and poor fits give uncertain potencies.

Common to all, as to test: Confirmatory Screen for Target Class Profiling of Small Molecule Inhibitors of Methyltransferases (AID 1745852);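 also: inhibitor potency for blocking SAH production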
Test [1] deals with Catechol O-methyltransferase (Homo sapiens) (UniProt P21964). To be noted: MTase-Glo luminescence, SAH detection, recombinant enzyme; measured here: COMT inhibition potency.
UniProt P21964, sequence (P21964 whole entry, looked up): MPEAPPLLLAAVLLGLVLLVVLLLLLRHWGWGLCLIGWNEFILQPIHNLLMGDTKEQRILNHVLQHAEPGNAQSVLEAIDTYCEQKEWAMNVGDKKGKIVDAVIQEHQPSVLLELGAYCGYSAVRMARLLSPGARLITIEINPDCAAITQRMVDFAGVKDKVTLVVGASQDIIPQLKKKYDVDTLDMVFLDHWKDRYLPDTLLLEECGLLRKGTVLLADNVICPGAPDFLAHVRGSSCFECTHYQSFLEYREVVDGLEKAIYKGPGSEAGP
Test [2] concerns the target Histamine N-methyltransferase (Homo sapiens) (UniProt P50135). To be noted: MTase-Glo luminescence, SAH detection, recombinant enzyme; measured here: HNMT inhibition potency.
UniProt P50135, sequence (P50135 whole entry, looked up): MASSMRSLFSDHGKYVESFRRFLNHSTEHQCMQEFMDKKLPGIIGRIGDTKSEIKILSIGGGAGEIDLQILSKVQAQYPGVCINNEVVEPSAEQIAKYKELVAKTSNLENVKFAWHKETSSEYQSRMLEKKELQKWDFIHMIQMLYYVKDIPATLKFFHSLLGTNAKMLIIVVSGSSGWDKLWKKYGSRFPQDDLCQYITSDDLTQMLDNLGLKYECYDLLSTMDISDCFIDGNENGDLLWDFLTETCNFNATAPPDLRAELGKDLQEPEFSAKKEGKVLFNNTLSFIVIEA
Test [3] deals with Nicotinamide N-methyltransferase (Homo sapiens) (UniProt P40261). As to conditions: MTase-Glo luminescence, SAH detection, recombinant enzyme; measured here: NNMT inhibition potency.
UniProt P40261, sequence (P40261 whole entry, looked up): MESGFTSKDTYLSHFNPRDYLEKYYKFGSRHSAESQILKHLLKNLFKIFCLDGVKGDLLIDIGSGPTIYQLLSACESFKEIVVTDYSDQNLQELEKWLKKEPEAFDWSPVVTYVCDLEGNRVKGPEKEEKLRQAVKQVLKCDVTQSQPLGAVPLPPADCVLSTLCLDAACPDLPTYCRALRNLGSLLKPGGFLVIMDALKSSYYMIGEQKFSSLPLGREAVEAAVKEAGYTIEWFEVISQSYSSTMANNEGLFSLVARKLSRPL
Test [4] concerns the target Phenylethanolamine N-methyltransferase (Homo sapiens) (UniProt P11086). To be noted: MTase-Glo luminescence, SAH detection, recombinant enzyme; measured here: PNMT inhibition potency.
UniProt P11086, sequence (P11086 whole entry, looked up): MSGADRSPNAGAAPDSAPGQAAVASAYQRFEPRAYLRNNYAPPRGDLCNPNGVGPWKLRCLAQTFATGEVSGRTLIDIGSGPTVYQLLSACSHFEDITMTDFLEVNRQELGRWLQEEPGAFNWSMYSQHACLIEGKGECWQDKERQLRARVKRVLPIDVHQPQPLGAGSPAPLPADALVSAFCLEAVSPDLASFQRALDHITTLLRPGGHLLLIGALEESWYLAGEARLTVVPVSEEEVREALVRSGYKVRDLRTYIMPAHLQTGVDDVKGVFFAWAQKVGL
Tags tell the direction and shape of the fitted curve.

Broadly, the IC50 is the point on the concentration scale where inhibition reaches its midpoint. In the case of `Cc1c(O)cc(O)c2c(=O)c(O)c(-c3ccc(O)c(O)c3)oc12`, the IC50 in test [1] was 24.1 µM [falling, partial curve].
Still for that read-out and setting: to `CC/C=C\CCO[C@@H]1O[C@H](CO)[C@@H](O)[C@H](O)[C@H]1O` belongs 3.83 µM [falling, partial curve].
With `O=C(/C=C/c1ccccc1)OC[C@H]1O[C@@H](OC(=O)c2cc(O)c(O)c(O)c2)[C@H](O)[C@@H](O)[C@@H]1O`, the IC50 in test [1] was 0.418 µM [falling, full curve].
`c1nc(NCC2CCOC2)c2cc(-c3ccc4c(c3)OCO4)ccc2n1` (stereo not drawn): the IC50 is 27.1 µM [falling, single point] in test [1]; 27.1 µM [falling, single point] in test [2]; 30.4 µM [falling, partial curve, poor fit] in test [3]; 19.2 µM [falling, partial curve] in test [4].
For `N#C/C(=C\c1ccc(O)c(O)c1)C(=O)NCCCNC(=O)/C(C#N)=C/c1ccc(O)c(O)c1`, the IC50 in test [1] was 19.3 µM [falling, partial curve, poor fit]; in test [2] it was 6.85 µM [falling, full curve]; in test [3] it was 15.3 µM [falling, partial curve]; in test [4] it was 9.68 µM [falling, full curve].
`C=Cc1cc2oc(-c3ccc(O)c(F)c3)nc2cc1O`: the IC50 in test [1] was 27.1 µM [falling, partial curve]; in test [2], 24.1 µM [falling, partial curve]; in test [3], 27.1 µM [falling, partial curve]; in test [4] it was 27.1 µM [falling, partial curve].
`N#CSc1cc(SC#N)c(N)nc1N`: the IC50 is 3.63 µM [falling, partial curve] in test [1]; 10.2 µM [falling, single point] in test [2]; 8.14 µM [falling, partial curve] in test [3]; 2.04 µM [falling, full curve] in test [4].
As for `CN(Cc1cccs1)c1ncnc2ccc(-c3ccc4c(c3)OCO4)cc12`, the IC50 is 10.8 µM [falling, full curve] in test [1]; 13.6 µM [falling, full curve] in test [2]; 12.1 µM [falling, partial curve] in test [3]; 10.8 µM [falling, partial curve] in test [4].
For `CC(C)[C@@](C)(O)[C@@H]1CN(c2nc(-c3[nH]nc4ncccc34)c(F)cc2Cl)CCN1`, the IC50 was 24.1 µM [falling, partial curve] in test [1]; 24.1 µM [falling, partial curve] in test [2]; 24.1 µM [falling, partial curve] in test [3]; 24.1 µM [falling, partial curve] in test [4].
Turning to `COc1cc(C(=O)OC[C@H]2O[C@@H](Oc3ccccc3/C=C/C(=O)O)[C@H](O)[C@@H](O)[C@@H]2O)cc(OC)c1OC`, the IC50 in test [1] was 3.32 µM [falling, full curve].
For the molecule `CC1CCCCCCCc2cc(O)cc(O)c2C(=O)O1` (stereo not drawn), the IC50 in test [1] was 24.1 µM [falling, partial curve]; in test [2], 21.5 µM [falling, partial curve]; in test [3], 27.1 µM [falling, partial curve]; in test [4] it was 27.1 µM [falling, partial curve].
`Cc1nc(C#Cc2ccnc(Cl)c2)c(C)n1-c1ccc(F)cc1`: the 50% inhibitory concentration (IC50) in test [1] is 27.1 µM [falling, partial curve]; in test [2], 27.1 µM [falling, partial curve]; in test [3], 24.1 µM [falling, partial curve]; in test [4], 27.1 µM [falling, partial curve].
With `COc1cc(C2Oc3c(OC)cc(CCCO[C@@H]4O[C@H](CO)[C@@H](O)[C@H](O)[C@H]4O)cc3C2CO)ccc1O` (stereo partly drawn), the IC50 in test [1] is 2.64 µM [falling, full curve].
Turning to `C[C@H](Oc1cc(-c2cnn(C3CCNCC3)c2)cnc1N)c1c(Cl)ccc(F)c1Cl`, the IC50 in test [1] was 24.1 µM [falling, partial curve]; in test [2], 19.2 µM [falling, partial curve]; in test [3], 24.1 µM [falling, partial curve]; in test [4] it was 24.1 µM [falling, partial curve].
Consider `O=C(O[C@@H]1O[C@H](CO)[C@@H](O)[C@H](O)[C@H]1O)c1c(O)cc(O)cc1/C=C/c1ccccc1`, for which, in test [1], the IC50 was 2.1 µM [falling, full curve].
Same read-out and setting: to `C[C@]12C[C@@H](O)[C@@H]3C[C@@]1(O[C@@H]1O[C@H](CO)[C@@H](O)[C@H](O)[C@H]1O)[C@]3(COC(=O)c1ccccc1)C(=O)O2` belongs 2.64 µM [falling, full curve].
